About 4,000 (1%) of roughly 390,000 compounds were called active. The inconclusive results got no clear call from the source; some entries with a clear call stand among them for comparison. The call rests on the fitted dose curve; in most records, active means well fitted inhibition curve with a large enough effect; inconclusive means small, poorly fitted or top-dose-only effect; inactive means no such curve, though single readings can be large or run the other way. Potencies of inconclusive entries are doubtful fits and often do not repeat.
What follows are compounds tested against Thioredoxin reductase 1, cytoplasmic (Rattus norvegicus) (UniProt O89049) (assay: qHTS Assay for Inhibitors of Mammalian Selenoprotein Thioredoxin Reductase 1 (TrxR1): qHTS). Conditions: recombinant rTrxR1, NADPH fluorescence consumption, selenite substrate; series mostly up to 114 µM; activity change, negative = inhibition: at the top concentration.
Outline: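 Rat TrxR1 (90 nM in the dispensed reagent) was pre-reduced with 400 uM NADPH for 5 min at room temperature, then incubated with compound for 15 min. After 400 uM selenite was added, NADPH fluorescence (Ex 340/Em 450 nm) was followed for 8 min.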
Further: nearly all actives have a fitted effect of over 65% in size.
On the % scale 0 is the no-effect control and ±100 the full control effect; potency means the concentration at half of the fitted maximal effect; tags describe the fitted curve by direction and shape.

Chain of UniProt O89049 (O89049 whole entry, looked up): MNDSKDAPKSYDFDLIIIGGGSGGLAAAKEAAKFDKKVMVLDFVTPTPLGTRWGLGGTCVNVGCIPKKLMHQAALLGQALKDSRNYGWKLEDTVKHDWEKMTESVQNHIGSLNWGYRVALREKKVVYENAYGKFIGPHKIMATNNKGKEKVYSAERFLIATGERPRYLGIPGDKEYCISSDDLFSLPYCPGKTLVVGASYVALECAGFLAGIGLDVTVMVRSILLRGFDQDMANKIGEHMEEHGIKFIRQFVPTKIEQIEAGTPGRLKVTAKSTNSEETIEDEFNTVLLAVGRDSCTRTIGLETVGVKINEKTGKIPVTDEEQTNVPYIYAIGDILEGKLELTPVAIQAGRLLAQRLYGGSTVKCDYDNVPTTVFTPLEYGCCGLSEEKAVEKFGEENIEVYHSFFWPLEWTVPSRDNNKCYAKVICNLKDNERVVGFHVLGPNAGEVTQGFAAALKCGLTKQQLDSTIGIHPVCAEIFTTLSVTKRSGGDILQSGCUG

SMILES | Potency | activity change, negative = inhibition
COc1ccc(C(=O)N/N=C(\C)CC(=O)Nc2cccc(C(F)(F)F)c2)cc1 | inconclusive: 12.6 µM [inhibitor, partial curve] | –
CN1C(C(=O)NCc2ccco2)CC2Cn3c(nc4ccccc43)C21 (stereo not drawn) | inconclusive: 79.4 µM [inhibitor, partial curve, poor fit] | –
COc1ccccc1N(CC(=O)N/N=C/c1c(O)ccc2ccccc12)S(C)(=O)=O | – | inactive: -2.93%
Cc1cnc(/C=C/c2ccc(N(C)C)cc2)cn1 | inconclusive: 50.1 µM [inhibitor, partial curve, poor fit] | –
Cc1cccc(NC(=O)Cc2ccc(NC3=NC4CS(=O)(=O)CC4S3)cc2)c1 (stereo not drawn) | – | inactive: 9.89% [at 57.1 µM]
Nc1ccc(-c2nc3c(Cl)cc(N)cc3[nH]2)cc1 | inconclusive: 89.1 µM [inhibitor, single point] | –
COc1ccc2c(c1)CCC1C2=NN(/C(C)=C\C(C)=O)C1c1ccc(F)cc1 (stereo not drawn) | inconclusive: 44.7 µM [inhibitor, partial curve, poor fit] | –
Cc1ccc(C)n1-c1ccc(C(=O)Nc2ccccc2F)cc1 | inconclusive: 22.4 µM [inhibitor, single point] | –
O=C(/C=C/c1ccco1)Nc1sc2c(c1C(=O)O)CCC2 | inconclusive: 39.8 µM [inhibitor, partial curve] | –
O=C(Cn1c(=O)n(Cc2ccccc2)c(=O)c2sc3ccccc3c21)Nc1ccc(F)cc1 | – | inactive: 23.1%
c1ccc(Cn2nnnc2C(c2ccccc2)N2CCN(c3nc4ccccc4s3)CC2)cc1 (stereo not drawn) | – | inactive: 22.8% [at 57.1 µM]
COc1ccc2c(c1)C(=O)c1ccccc1CO2 | inconclusive: 39.8 µM [inhibitor, single point] | –
CCc1nc(N)nc(N)c1-c1ccc(Cl)c([N+](=O)[O-])c1 | – | inactive: -6.5%
C[N+](C)(C)CCC(=O)c1cccc2ccccc12 | inconclusive: 2.82 µM [inhibitor, full curve] | –
CCCC1=C(C(=O)OCC)C(c2ccc(OC)c(CSc3ccccn3)c2)C(C#N)=C(N)O1 (stereo not drawn) | inconclusive: 89.1 µM [inhibitor, single point] | –
O=C(c1cc2cc([N+](=O)[O-])ccc2oc1=O)N1CCN(C2CCCCC2)CC1 | inconclusive: 89.1 µM [inhibitor, single point] | –
c1ncc2snnc2n1 | – | inactive: 4.81%
COC(=O)Cc1c(C)c2ccc(O)c(CNCc3ccc(OC)c(OC)c3)c2oc1=O | inconclusive: 70.8 µM [inhibitor, single point] | –
O=C(Nc1cccc2ccccc12)c1ccc([N+](=O)[O-])s1 | – | inactive: -10.6%
CCOC(=O)CN=C1CC(C)(C)CC2=C1Sc1ncnc(N(C)C)c1N2 | inconclusive: 6.31 µM [inhibitor, full curve] | –
CCc1nnc(NC(=O)c2ccc(-c3ccc(C(C)=O)cc3)o2)s1 | active: 14.1 µM | –
CC(=O)Nc1ccc(S(=O)(=O)N2CCCC2C(=O)Nc2ccc(F)cc2)cc1 (stereo not drawn) | inconclusive: 89.1 µM [inhibitor, single point] | –

SMILES | Potency | activity change, negative = inhibition
CN(CC(=O)Nc1ccccc1Cl)C(=O)c1ccc(-c2cccc(C(F)(F)F)c2)o1 | inconclusive: 25.1 µM [inhibitor, partial curve, poor fit] | –
Cc1ccc2nc(CSc3nnc(-c4ccco4)n3-c3ccccc3)cc(=O)n2c1 | inconclusive: 39.8 µM [inhibitor, partial curve, poor fit] | –
O=C1CCCN1CCC1CCN(C2CC(=O)N(c3ccc(Cl)cc3)C2=O)CC1 (stereo not drawn) | active: 39.8 µM | –
Cc1ccc(C2C3CN(C(C)C)CC=C3C(C#N)=C(N)C2(C#N)C#N)cc1 (stereo not drawn) | inconclusive: 25.1 µM [inhibitor, single point] | –
O=C(NC(=S)Nc1ccc(N2CCCC2)cc1)c1ccc(F)cc1 | inconclusive: 14.1 µM [inhibitor, partial curve, poor fit] | –
CN(C(=O)COC(=O)c1ccccc1C(=O)N(C)c1ccccc1)c1ccccc1 | – | inactive: 7.87%
Cc1ccc(C)c(NC(=O)CCc2c(C)nn(-c3ccc(N4CCCC4)nn3)c2C)c1 | – | inactive: 23.3% [at 57.1 µM]
CCCCCC(=O)NNC(=S)NC(=O)c1ccc([N+](=O)[O-])cc1 | inconclusive: 35.5 µM [inhibitor, partial curve, poor fit] | –
CCCCNC(=O)COC(=O)c1ccc(N(C)C)cc1 | inconclusive: 89.1 µM [inhibitor, single point] | –
O=C(/C=C/c1ccc(Cl)c([N+](=O)[O-])c1)c1cccnc1 | inconclusive: 6.31 µM [inhibitor, full curve] | –
COC(=O)C(C(=O)OC)=C(/C=C/C=C/N(C)C)N(C)C | inconclusive: 14.1 µM [inhibitor, full curve] | –
O=C(c1ccc(S(=O)(=O)Cc2ccccc2F)c([N+](=O)[O-])c1)N1CCCC1 | inconclusive: 28.2 µM [inhibitor, single point] | –
CCOC(=O)CCCC(=O)N1CCN(/[N+]([O-])=N/Oc2ccc([N+](=O)[O-])cc2[N+](=O)[O-])CC1 | active: 15.8 µM | –
O=C(/C=C/Sc1ccc(C(F)(F)F)cn1)c1ccccc1 | active: 1.26 µM | –
Cc1c(Cc2ccccc2)c(=O)oc2cc(O)cc(O)c12 | inconclusive: 79.4 µM [inhibitor, partial curve, poor fit] | –
CCc1cc(=O)oc2c(C)c(OCC(=O)NCc3ccccn3)ccc12 | inconclusive: 39.8 µM [inhibitor, single point] | –
Cc1ccc(C(=O)n2nc(C)c(S(=O)(=O)N3CCOCC3)c2C)cc1C | inconclusive: 28.2 µM [inhibitor, single point] | –
CC1(C)CC(=O)C(=Cc2cn(-c3ccccc3)nc2-c2ccc(Cl)cc2)C(=O)C1 | inconclusive: 10 µM [inhibitor, partial curve, poor fit] | –
CCS(=O)(=O)c1c(Nc2cc(C)ccc2C)sc(C(=O)c2ccccc2)c1N | – | inactive: 1.39%
CC1CN(C(=S)SCC(=O)c2ccc(Cl)cc2)CC(C)O1 (stereo not drawn) | – | inactive: -11.2%
O=C(Nc1cccc(-c2cn3ccccc3n2)c1)c1ccccc1 | inconclusive: 39.8 µM [inhibitor, partial curve, poor fit] | –
